In all, about 150,000 compounds went through this assay and about 540 (0.36%) showed an effect of 50% or more. The list shows a part of the results.
test system: Plasmodium falciparum; experiment: Primary screen in NF54 nanoGlo assay, in single point, at 2uM, 72h; a lower Z score goes with more inhibition; assay type: functional, Erythrocyte; conditions: timepoint 72 hour

SMILES	% Inhibition	Z score
O=C1CCC(C(=O)N2CCC(c3nccn3Cc3ccccc3)CC2)=NN1	-2%	0.25
Cn1c(CN2CCN(c3ccc(O)cc3)CC2)cc(=O)n(C)c1=O	6%	-0.89
Cc1ccc(-c2nn3nc(COc4cccc5c4OC(C)(C)C5)nc3s2)cc1	42%	-5.39
CC(C)[C@H]1CN(Cc2cc3ccccc3o2)C[C@@H]1N(C)C	-4%	0.79
Cc1nc(-c2cccc(Cl)c2)sc1-c1cc(C(=O)N2CCN(c3ccccc3)CC2)[nH]n1	-10%	1.23
Cc1ccc(NC(=O)C2C3NC(=O)N(C4CCCCC4)C2(C)Oc2ccccc23)c(C)c1 (stereo not drawn)	29%	-3.92
CCn1nc(C)cc1C(=O)Nc1c(N2CCCC2)nn(C)c1C	-19%	3.58
Cc1ccc(OCc2cc(C(=O)N(Cc3ccccc3)CC3CCC3)no2)cn1	-18%	1.96
CN1c2ccccc2C(=O)N[C@@H]1c1ccccc1OCc1ccccc1	35%	-5.05
Cc1cc(C(=O)N2C[C@H]3CCC[C@@H](O)[C@H]3C2)c(C)o1	-12%	1.15
Cc1onc(-c2ccccn2)c1C(=O)N[C@H]1CCCOCC1	12%	-1.37
C#CC(NS(=O)(=O)c1ccc(NS(=O)(=O)CCC)c(F)c1)C1CCOC1 (stereo not drawn)	-6%	0.66
O=C(Nc1ccc2c(c1)OCO2)N1CCC(c2ccsc2)CC1	-8%	1.18
CCN(CCOc1cccc(OC)c1)C(=O)Cc1cccc(O)c1	17%	-2.17
CCc1nc(NC(=O)N[C@@H]2C=C[C@H](CO)C2)sc1C	-2%	0.27
O=C(c1ccc2[nH]ccc2c1)N1Cc2cccnc2C1	-10%	1.66
CC(C)Oc1cc(CN(Cc2csc([C@@H]3CCCO3)n2)C2CC2)ccn1	12%	-1.48
COCCN(Cc1cc(Cl)cs1)[C@@H](C)C(N)=O	-10%	1.14
O=C(Cc1cccc(Cl)c1)NC1CC1	-6%	1
Cc1ccc(-c2ncn(C3CCCCC3)c2-c2ccc(C(=O)N3CCN(c4ncccn4)CC3)o2)cc1	-5%	0.71
CCOc1cccc(Cl)c1CN1CCOC[C@H]1c1nnc(C)o1	-12%	2.36
C[C@H]1CCCN(Cc2ccccc2CNC(=O)c2nccnc2N)C1	7%	-1.35
CC(C)(C(=O)NCc1cc2c(s1)CCCCC2)S(C)(=O)=O	1%	-0.11
Cc1cc(C(=O)Nc2nc3c(s2)CCCC3)cs1	-4%	0.67
O=c1c2ccccc2ncn1C[C@H]1CC[C@H](C(=O)NC[C@H]2CC[C@H](C(=O)O)CC2)CC1	-10%	1.37
CC(C)OCCS(=O)(=O)NCc1nccs1	-10%	1.03
COc1cccc(-c2nnc3c4ccccc4nc(N4CCN(C(=O)CC(C)(C)C)CC4)n23)c1	-5%	0.74

SMILES	% Inhibition	Z score
O=C(CN1Cc2ccccc2C2(CCC2)C1)N1CCOCC1	1%	-0.09
CC(C)N1C(=O)C[n+]2ccccc2[C@@H]1C(=O)Nc1ccccc1	-5%	0.83
CC(=O)Nc1ccc(C)c(C(O)(C(F)(F)F)C(F)(F)F)c1	4%	-0.53
CNC(=O)C1CN(C(=O)c2ccc(C3CC3)nc2C)C1	4%	-0.49
COCCCN(CCC(=O)N1CCOCC1)C(=O)c1cc(C)oc1C	2%	-0.33
CCN(Cc1ccccn1)C(=O)c1ccc2nc(-c3ccc(F)cc3)cn2c1	-5%	0.84
O=C(NS(=O)(=O)Cc1ccc(Br)cc1)c1ccoc1	-8%	1.12
O=C(Cc1ccncc1)Nc1n[nH]c2ccc(C(F)(F)F)cc12	-42%	4.96
CN(C)Cc1ccnc(NC(=O)C2CCN(S(C)(=O)=O)CC2)c1	-11%	1.46
COC(=O)C(C)(C)c1nc(CCN2CCOC2=O)sc1C	-8%	1.06
Cc1cc2n(n1)CCN(Cc1cc(C#N)c(C)[nH]1)C2	-10%	1.7
Cc1cc(C)nc(N2CCN(C(=O)[C@@H]3CCCCCN3C)CC2)n1	-8%	1
O=C(Cc1cc(F)c(F)cc1Cl)NCc1cc2n(n1)CCNC2	-14%	1.27
C[C@H]1CCCCN1C(=O)CCc1nc2ccccc2s1	-7%	0.58
O=S(=O)(CCCC1CCCCC1)NCc1nc(C2CC2)no1	-7%	1.11
O=C1OC[C@H]2CN(c3nc4ccc(Cl)cc4s3)CCN12	-7%	0.98
CC(=O)N1CCc2cc(S(=O)(=O)N3CCC(CC(=O)N4CCOCC4)CC3)ccc21	-15%	1.44
CCN1CCCN(C(=O)c2ccc(-c3ccc(O)c(C)c3C)cc2)CC1	-7%	1.37
COCC(=O)N(CCC(C)C)c1nnc(C)c2ccccc12	-3%	0.45
O=S(=O)(c1cccc2nsnc12)N1CCC2(CC[C@@H]2N2CCOCC2)CC1	1%	-0.15
Cc1ccc(C(O)CN2CCOC(c3nc(C)n[nH]3)C2)c(C)c1 (stereo not drawn)	-3%	0.45
COc1ccc(-c2cc(N3CCOCC3)ncn2)c(OC)c1	11%	-1.5
CS(=O)(=O)c1ccccc1CN[C@H]1CCOC12CCCC2	-4%	0.88
C[C@@H](C(=O)N(C)CCCc1cc(-c2ccccc2)n[nH]1)n1cncn1	-14%	1.39
Cc1nnnn1[C@@H](Cc1ccc(F)cc1)C(=O)N1CCC(CC(=O)N2CCCC2)CC1	-12%	1.58
Cc1ccc(C(=O)Nc2cccc(NC(=O)c3ccc4c(c3)OCO4)c2)cc1F	-4%	0.65
CC(=O)N1CC[C@H](CN(C)c2nc(-c3ccc(C)cc3)no2)C1	7%	-0.99

Source: ChEMBL document CHEMBL4888484, “Replenishing the malaria drug discovery pipeline: Screening and hit evaluation of the MMV Hit Generation Library 1 (HGL1) against asexual blood stage Plasmodium falciparum ,using a nano luciferase reporter read-out” (2022)
